# The supplement of paper PMC10037445
# The full ranking holds about 2,900 compounds; the median of “IRF Lucia reporter activity, fold change vs agonist alone” is about 0.9, and the highest 2% start at about 2.8. Some of the results follow.
# How the values were obtained:
# RAW-Dual [1] = test: IRF Lucia reporter activity, fold change vs agonist alone; cytotoxicity flag (confluency mask): cytotoxic (confluency <70% of control); higher = enhanced IRF activity
# Outline: (§1)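 Cytotoxic wells were those whose IncuCyte confluency was below 70% of agonist controls in both mask sets. The cells were RAW-Dual macrophages at 50,000 cells/well in DMEM on 384-well plates, dosed with 50 nL of library stock by pin tool, stimulated with a PRR agonist 1 h later, and kept at 37 °C, 5% CO2 for 20 hours. IRF and NF-κB reporter activity, as fold change over agonist-alone wells, came from supernatant read by QuantiLuc luminescence and QuantiBlue absorbance, respectively.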
# RAW-Dual [2] = test: IRF Lucia reporter activity, fold change vs agonist alone; cytotoxicity flag (confluency mask): not cytotoxic; higher = enhanced IRF activity
# Outline: as §1
# RAW-Dual [3] = test: IRF Lucia reporter activity, fold change vs agonist alone; higher = enhanced IRF activity; conditions: agonist: MPLA (TLR4) […]
# Outline: as §1
# [4] = agonist: 3'3'-cGAMP (STING) 10 ug/mL
# [5] = library stock concentration (final ~1000-fold dilution): 10 mM, cytotoxicity flag (confluency mask): not cytotoxic
compound,measurement,setting,value
CC(C)c1cnn2c(NCc3ccccc3-n3cccn3)nc(OC3CCCNC3)nc12 (stereo not given) (library stock concentration (final ~1000-fold dilution): 10 mM),IRF Lucia reporter activity,RAW-Dual [1]; [4],0.00484
same,IRF Lucia reporter activity,RAW-Dual [1]; agonist: LPS (TLR4) 0.1 ug/mL,0.0088
CNc1ncc2cc(-c3cc(NC(=O)NCCC(C)(C)C)c(F)cc3C)c(C)nc2n1 (library stock concentration (final ~1000-fold dilution): 2 mM),IRF Lucia reporter activity,RAW-Dual [2]; [4],0.83
same,IRF Lucia reporter activity,RAW-Dual [2]; agonist: LPS (TLR4) 0.1 ug/mL,0.521
CC1(C)SC2C(NC(=O)C(N)c3ccccc3)C(=O)N2C1C(=O)OCOC(=O)C1N2C(=O)CC2S(=O)(=O)C1(C)C (stereo not given) (library stock concentration (final ~1000-fold dilution): 10 mM),IRF Lucia reporter activity,RAW-Dual [2]; [4],1.01
same,IRF Lucia reporter activity,RAW-Dual [2]; agonist: LPS (TLR4) 0.1 ug/mL,1.41
CC1(C)SC2C(NC(=O)C(N)c3ccccc3)C(=O)N2C1C(=O)OCOC(=O)C1N2C(=O)CC2S(=O)(=O)C1(C)C (stereo not given),IRF Lucia reporter activity,RAW-Dual [3]; [5],1.08
C=CC(=O)N1CC(Nc2ncnc3[nH]ccc23)CCC1C (stereo not given) (library stock concentration (final ~1000-fold dilution): 10 mM),IRF Lucia reporter activity,RAW-Dual [2]; [4],0.607
same,IRF Lucia reporter activity,RAW-Dual [2]; agonist: LPS (TLR4) 0.1 ug/mL,0.815
COc1ccc2cccc(CCNC(C)=O)c2c1,IRF Lucia reporter activity,RAW-Dual [3]; [5],0.91
COc1ccc2cccc(CCNC(C)=O)c2c1 (library stock concentration (final ~1000-fold dilution): 10 mM),IRF Lucia reporter activity,RAW-Dual [2]; [4],0.874
same,IRF Lucia reporter activity,RAW-Dual [2]; agonist: LPS (TLR4) 0.1 ug/mL,1.06
COc1cc(CCC(=O)CC(O)CCc2ccc(O)c(OC)c2)ccc1O (stereo not given) (library stock concentration (final ~1000-fold dilution): 10 mM),IRF Lucia reporter activity,RAW-Dual [2]; [4],0.72
same,IRF Lucia reporter activity,RAW-Dual [2]; agonist: LPS (TLR4) 0.1 ug/mL,0.938
Cc1[nH]c(C=C2C(=O)Nc3ccc(F)cc32)c(C)c1C(=O)NCCN1CCCC1,IRF Lucia reporter activity,"RAW-Dual [3]; library stock concentration (final ~1000-fold dilution): 2 mM, cytotoxicity flag (confluency mask): not cytotoxic",0.869
Cc1[nH]c(C=C2C(=O)Nc3ccc(F)cc32)c(C)c1C(=O)NCCN1CCCC1 (library stock concentration (final ~1000-fold dilution): 2 mM),IRF Lucia reporter activity,RAW-Dual [2]; [4],0.0313
same,IRF Lucia reporter activity,RAW-Dual [2]; agonist: LPS (TLR4) 0.1 ug/mL,0.194
Cl.Cl.Cn1cc(CNCC2CCN(c3ncc(C(=O)NO)cn3)CC2)c2ccccc21 (library stock concentration (final ~1000-fold dilution): 10 mM),IRF Lucia reporter activity,RAW-Dual [1]; [4],0.0444
same,IRF Lucia reporter activity,RAW-Dual [1]; agonist: LPS (TLR4) 0.1 ug/mL,0.955
Cl.Cl.Cn1cc(CNCC2CCN(c3ncc(C(=O)NO)cn3)CC2)c2ccccc21,IRF Lucia reporter activity,"RAW-Dual [3]; library stock concentration (final ~1000-fold dilution): 10 mM, cytotoxicity flag (confluency mask): cytotoxic (confluency <70% of control)",0.626
CCc1ccc(Cc2ccc3c(c2)C2(OC3)OC(CO)C(O)C(O)C2O)cc1.O (stereo not given) (library stock concentration (final ~1000-fold dilution): 10 mM),IRF Lucia reporter activity,RAW-Dual [2]; [4],1.17
same,IRF Lucia reporter activity,RAW-Dual [2]; agonist: LPS (TLR4) 0.1 ug/mL,1.15
Oc1ccc(Nc2nc(-c3ccc(Cl)cc3)cs2)cc1,IRF Lucia reporter activity,RAW-Dual [3]; [5],0.203
Oc1ccc(Nc2nc(-c3ccc(Cl)cc3)cs2)cc1 (library stock concentration (final ~1000-fold dilution): 10 mM),IRF Lucia reporter activity,RAW-Dual [2]; [4],0.0079
same,IRF Lucia reporter activity,RAW-Dual [2]; agonist: LPS (TLR4) 0.1 ug/mL,0.288
N#Cc1ccc2[nH]c(O)c(-c3ccc(CN4CCOCC4)cn3)c2c1 (library stock concentration (final ~1000-fold dilution): 10 mM),IRF Lucia reporter activity,RAW-Dual [2]; [4],0.996
same,IRF Lucia reporter activity,RAW-Dual [2]; agonist: LPS (TLR4) 0.1 ug/mL,0.903
N#Cc1ccc2[nH]c(O)c(-c3ccc(CN4CCOCC4)cn3)c2c1,IRF Lucia reporter activity,RAW-Dual [3]; [5],1.01
Nc1nc(NC2CC2)c2ncn(C3C=CC(CO)C3)c2n1.Nc1nc(NC2CC2)c2ncn(C3C=CC(CO)C3)c2n1.O=S(=O)(O)O (stereo not given),IRF Lucia reporter activity,"RAW-Dual [3]; library stock concentration (final ~1000-fold dilution): 10 mM water, cytotoxicity flag (confluency mask): not cytotoxic",1.44
Nc1nc(NC2CC2)c2ncn(C3C=CC(CO)C3)c2n1.Nc1nc(NC2CC2)c2ncn(C3C=CC(CO)C3)c2n1.O=S(=O)(O)O (stereo not given) (library stock concentration (final ~1000-fold dilution): 10 mM water),IRF Lucia reporter activity,RAW-Dual [2]; [4],1.4
same,IRF Lucia reporter activity,RAW-Dual [2]; agonist: LPS (TLR4) 0.1 ug/mL,0.91
CCNC1CN(CCCOC)S(=O)(=O)c2sc(S(N)(=O)=O)cc21 (stereo not given),IRF Lucia reporter activity,RAW-Dual [3]; [5],0.969
CCNC1CN(CCCOC)S(=O)(=O)c2sc(S(N)(=O)=O)cc21 (stereo not given) (library stock concentration (final ~1000-fold dilution): 10 mM),IRF Lucia reporter activity,RAW-Dual [2]; [4],1.04
same,IRF Lucia reporter activity,RAW-Dual [2]; agonist: LPS (TLR4) 0.1 ug/mL,0.83
CNC(=O)c1c(C)oc2cc(Oc3ncnc4cc(OC)c(OC)cc34)ccc12 (library stock concentration (final ~1000-fold dilution): 10 mM),IRF Lucia reporter activity,RAW-Dual [2]; [4],1.02
same,IRF Lucia reporter activity,RAW-Dual [2]; agonist: LPS (TLR4) 0.1 ug/mL,1.07
CNC(=O)c1c(C)oc2cc(Oc3ncnc4cc(OC)c(OC)cc34)ccc12,IRF Lucia reporter activity,RAW-Dual [3]; [5],1.1
COc1cc2ncnc(Nc3ccc(Cl)cc3F)c2cc1OC,IRF Lucia reporter activity,RAW-Dual [3]; [5],0.746
COc1cc2ncnc(Nc3ccc(Cl)cc3F)c2cc1OC (library stock concentration (final ~1000-fold dilution): 10 mM),IRF Lucia reporter activity,RAW-Dual [2]; [4],0.591
same,IRF Lucia reporter activity,RAW-Dual [2]; agonist: LPS (TLR4) 0.1 ug/mL,0.556
CCCC(C)NC(=O)c1ccc(Cl)c(Cl)c1 (stereo not given) (library stock concentration (final ~1000-fold dilution): 10 mM),IRF Lucia reporter activity,RAW-Dual [2]; [4],0.887
same,IRF Lucia reporter activity,RAW-Dual [2]; agonist: LPS (TLR4) 0.1 ug/mL,1.07
CN(C)c1ccc(O)c2c1CC1CC3C(N(C)C)C(O)=C(C(N)=O)C(=O)C3(O)C(O)=C1C2=O.Cl (stereo not given),IRF Lucia reporter activity,"RAW-Dual [3]; library stock concentration (final ~1000-fold dilution): 2 mM water, cytotoxicity flag (confluency mask): not cytotoxic",1.28
CN(C)c1ccc(O)c2c1CC1CC3C(N(C)C)C(O)=C(C(N)=O)C(=O)C3(O)C(O)=C1C2=O.Cl (stereo not given) (library stock concentration (final ~1000-fold dilution): 2 mM water),IRF Lucia reporter activity,RAW-Dual [2]; [4],1.09
same,IRF Lucia reporter activity,RAW-Dual [2]; agonist: LPS (TLR4) 0.1 ug/mL,0.851
